PubChem BioAssay AID411 (National Center for Advancing Translational Sciences (NCATS), 2006)
About 1,600 (2.2%) of roughly 72,000 compounds were called active. Inconclusive results, whose numbers are uncertain, are shown with a selection of clear calls. Calls follow the shape of the dose curve; as a rule, active = well fitted inhibition curve with a large enough effect; inconclusive = small, poorly fitted or top-dose-only effect; inactive = flat fitted curve, though single readings scatter. No potency is given beside an inconclusive call; the fits are too rough.
% is scaled to controls: 0 for no effect and ±100 for the full control effect; potency is read from the fitted curve at half-maximal effect; tags tell the direction and shape of the fitted curve.
Also: nearly all actives have a fitted effect of over 40% in size.

The compounds below were run against Luciferin 4-monooxygenase (Photinus pyralis) (UniProt P08659) (assay: qHTS Assay for Inhibitors of Firefly Luciferase). Conditions: purified firefly luciferase, luminescence, 8 min; series mostly up to 57.1 µM.
Sequence of UniProt P08659 (P08659 whole entry, looked up): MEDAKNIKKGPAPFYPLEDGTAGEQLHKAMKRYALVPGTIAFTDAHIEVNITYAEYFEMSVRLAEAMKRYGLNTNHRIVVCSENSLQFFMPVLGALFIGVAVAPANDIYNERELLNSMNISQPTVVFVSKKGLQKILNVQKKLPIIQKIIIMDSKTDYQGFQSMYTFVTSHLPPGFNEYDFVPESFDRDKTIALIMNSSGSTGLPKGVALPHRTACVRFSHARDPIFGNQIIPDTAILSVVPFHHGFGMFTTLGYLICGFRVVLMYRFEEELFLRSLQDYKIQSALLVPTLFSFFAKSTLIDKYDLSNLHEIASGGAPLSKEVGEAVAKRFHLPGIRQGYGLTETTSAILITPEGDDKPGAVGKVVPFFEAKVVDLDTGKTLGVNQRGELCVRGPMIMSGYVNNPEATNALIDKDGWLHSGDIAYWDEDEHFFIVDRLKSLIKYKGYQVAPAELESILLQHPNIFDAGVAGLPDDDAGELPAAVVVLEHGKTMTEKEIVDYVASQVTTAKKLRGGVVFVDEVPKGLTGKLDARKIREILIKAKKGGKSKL
Method in brief: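 Firefly luciferase (PKLight detection mix) with 10 uM ATP in pH 7.2 imidazole buffer (KCl, MgCl2, Tween 20, BSA). Compounds tested across a concentration series (qHTS). Luminescence read after 8 min at ambient temperature.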
For COc1ccc(C(=O)N=c2nc3ccccn3s2)cc1, the Potency was active: 0.501 µM.
For CC(=O)Nc1nnc(Cc2ccccc2)s1, the Potency was inconclusive [inhibitor, partial curve].
With CCN(CC)C(=O)c1sc2nc(-c3ccc(OC)cc3)cn2c1C the Potency was active: 12.6 µM.
With O=C(Nc1nc2c(s1)CCCC2)c1ccc(Br)o1 the Potency was active: 6.31 µM.
For O=C(CSc1ccc(-c2ccccc2)nn1)N1CCOCC1, the Potency was “inactive”.
With COCCN(CC(=O)Nc1ccc(F)cc1)S(=O)(=O)c1ccc(S(=O)(=O)N2CCCC2)cc1 the Potency was inconclusive [inhibitor, full curve].
For COc1cccc(NC(=O)N2CCN(c3cccc(C)c3C)CC2)c1, the Potency was inconclusive [inhibitor, single point].
With Cc1nn(-c2nc3ccccc3s2)c(C)c1Oc1ccccc1O the Potency was inconclusive [inhibitor, partial curve, poor fit].
COc1cc(CC(=O)OCC(=O)Nc2ccc(S(=O)(=O)N3CCCC3)cc2)cc(OC)c1OC was tested, and the Potency was inconclusive [inhibitor, full curve].
For Cc1ccc(OC(=O)c2ccc(C)c(C)c2)cn1, the Potency was inconclusive [inhibitor, single point].
In the case of Fc1cccc(NCc2cn3ccccc3n2)c1, the Potency is reported as inconclusive [inhibitor, partial curve].
With COc1ccccc1Nc1nc(N)nc(CN2CCN(c3ccccc3)CC2)n1 the Potency was “inactive”.
For COc1ccc(N(CC(=O)NC2CCCC2)C(=O)CCC(=O)Nc2cc(C)on2)c(OC)c1, the Potency was inconclusive [inhibitor, full curve].
In the case of CCOC(=O)CNc1c(-c2ccc(O)cc2)nc2ccc(Cl)cn12, the Potency is reported as inconclusive [inhibitor, single point].
With CC(C)=NOCc1cccc(-c2cc(-c3ccccc3)no2)c1 the activity change, negative = inhibition was inactive: 0.651% [at 11.4 µM].
Cc1cc(C(=O)OCC(=O)c2ccc3c(c2)OCCO3)c(C)o1 was tested, and the Potency was inconclusive [inhibitor, single point].
COc1ccc(CCNC(=O)c2cc3c(=O)n4cccc(C)c4nc3n(Cc3ccncc3)c2=N)cc1 was tested, and the Potency was “inactive”.
In the case of Cc1ccc(NC(=O)c2cc(C)on2)cc1, the Potency is reported as active: 15.8 µM.
For Fc1ccc2nc(Nc3nc4c(s3)CCCC4)sc2c1, the Potency was inconclusive [inhibitor, partial curve].
CCn1cnc2sc(C(=O)Nc3ccc4c(c3)OCO4)c(C)c2c1=O was tested, and the Potency was inconclusive [inhibitor, partial curve].
In the case of Oc1ccccc1-c1nnc(SCCN2CCOCC2)n1Cc1ccccc1, the Potency is reported as inconclusive [inhibitor, full curve].
Cc1occc1C(=O)Nc1ccc2c(c1)OCO2 was tested, and the Potency was inconclusive [inhibitor, single point].
In the case of Nc1ccc(O)c(-c2nc3ccccc3s2)c1, the Potency is reported as inconclusive [inhibitor, full curve].
For COc1ccc(OC)c(C2CC(=O)N3CN(c4cccc(Cl)c4C)CSC3=C2C#N)c1 (stereo not given), the Potency was “inactive”.
For CCOC(=O)c1sc(Nc2nc3c(OC)cccc3s2)nc1C, the Potency was active: 15.8 µM.
For c1csc(-c2nc(-c3ccncc3)no2)c1, the Potency was inconclusive [inhibitor, single point].
For COc1ccc(-c2cn3cc(Cl)ccc3n2)cc1OC, the Potency was inconclusive [inhibitor, single point].
In the case of CCn1c(Cc2ccccc2)nnc1SCC(=O)Nc1ccc(N2CCOCC2)c(Cl)c1, the Potency is reported as inconclusive [inhibitor, single point].
In the case of Cc1ccc(NC(=O)c2ccc3ccccc3n2)nc1, the Potency is reported as active: 6.31 µM.
In the case of Cc1ccc(N=C(c2cccs2)N2CCOCC2)cc1, the Potency is reported as inconclusive [inhibitor, full curve].
CN(C)c1nc(N)nc(-c2nc3ccccc3s2)n1 was tested, and the Potency was inconclusive [inhibitor, single point].
With CCOC(=O)c1ccc(NC(=O)N(CC)CC)cc1 the Potency was inconclusive [inhibitor, single point].
In the case of Nc1nnc(N2CCc3ccccc32)s1, the Potency is reported as inconclusive [inhibitor, single point].
For CCCCN1c2ccccc2N(CCCO)c2cc(C)nnc21, the Potency was active: 15.8 µM.
Cc1csc2nc(CSc3ccc(Cl)cc3)cn12 was tested, and the Potency was inconclusive [inhibitor, partial curve].
With Cc1ccccc1OCC(=O)Nc1ccc2c(c1)OCO2 the Potency was inconclusive [inhibitor, single point].
With CC1=CC2=C(OC1N(C)C)c1cccc3cccc(c13)C2=O (stereo not given) the Potency was “inactive”.
With CCOC(=O)CSc1nnc(-c2ccc(Cl)cc2Cl)o1 the Potency was active: 12.6 µM.
Cc1ccc(-c2cc(C(=O)NCc3ccco3)c3ccccc3n2)o1 was tested, and the Potency was inconclusive [inhibitor, single point].
For N#Cc1c(/N=C/c2ccco2)sc2c1CCC2, the Potency was active: 2.51 µM.
For CCCCC(=O)Nc1cccc(NC(=O)c2ccc3c(c2)OCO3)c1, the Potency was inconclusive [inhibitor, single point].
In the case of O=C(OCc1nc2ccccc2s1)c1cccc(S(=O)(=O)N2CCOCC2)c1, the Potency is reported as inconclusive [inhibitor, single point].
With COc1ccc(CCNC(=O)c2nnn(-c3ccc4c(c3)OCCO4)c2N)cc1OC the Potency was inconclusive [inhibitor, single point].
With COc1ccc2c(c1)CCc1c-2n[nH]c1C(=O)O the Potency was inconclusive [inhibitor, single point].
With COc1ccccc1-c1noc(CCC(=O)Nc2cc(C(F)(F)F)ccc2Cl)n1 the Potency was inconclusive [inhibitor, single point].
For COc1cccc(-c2nc(-c3ccccc3)no2)c1, the Potency was active: 10 µM.
COc1cc(Cl)ccc1S(=O)(=O)n1nc(C)cc1C was tested, and the Potency was inconclusive [inhibitor, partial curve].
For CCNS(=O)(=O)c1ccc(NC(=O)Nc2cccc(OC)c2)cc1, the Potency was inconclusive [inhibitor, single point].
In the case of CCC(=O)N1CCc2cc(S(=O)(=O)NCCC(=O)N3CCc4ccccc4C3)ccc21, the Potency is reported as inconclusive [inhibitor, single point].
In the case of COC(=O)C1CCN(C(=O)CCCOc2ccccc2)CC1, the Potency is reported as inconclusive [inhibitor, single point].
COc1ccc(C2=NCC(CSc3nnc(-c4ccc5c(c4)OCO5)o3)S2)cc1 (stereo not given) was tested, and the Potency was inconclusive [inhibitor, single point].
In the case of COC(=O)Nc1ccc(S(=O)(=O)N2CCN(c3ccc(F)cc3)CC2)cc1, the Potency is reported as inconclusive [inhibitor, single point].
In the case of COc1ccc(Nc2oc(COc3cccc(C)c3)nc2C#N)cc1, the Potency is reported as inconclusive [inhibitor, single point].
In the case of O=C(Nc1ccc2sccc2c1)c1ccc(Cl)s1, the Potency is reported as active: 1.58 µM.
In the case of Clc1ccc2nc(CSc3nc4ccccc4o3)cn2c1, the Potency is reported as inconclusive [inhibitor, partial curve].
With O=C(O)CCCC(=O)Nc1cccc(-c2nc3ccccc3[nH]2)c1 the Potency was active: 20 µM.
For c1ccc2c(c1)Cn1c-2nc2ccccc21, the Potency was active: 12.6 µM.
With Cc1cc(-c2ccc(N=Nc3ccc4c(S(=O)(=O)O)cc(S(=O)(=O)O)c(N)c4c3O)c(C)c2)ccc1N=Nc1ccc2c(S(=O)(=O)O)cc(S(=O)(=O)O)c(N)c2c1O the Potency was active: 31.6 µM.
In the case of CS(=O)(=O)Nc1ccccc1C(=O)Nc1ccc2c(c1)OCCO2, the Potency is reported as inconclusive [inhibitor, single point].
With CCN1CCN(Cc2ccc(NC(=O)Nc3ccccc3OC)cc2)CC1 the Potency was inconclusive [inhibitor, single point].
With CC(C)(C)c1ccc(OCc2nc(-c3ccccn3)no2)c(Br)c1 the Potency was inconclusive [inhibitor, single point].
CCOc1ccc(N2C(=O)c3ccccc3C2O)cc1 (stereo not given) was tested, and the Potency was inconclusive [inhibitor, single point].
For CCOC(=O)CN(C(=O)Cn1nnc2ccccc21)C(C(=O)NCCOC)c1ccccc1 (stereo not given), the Potency was “inactive”.
Cc1ccc2c(CC(=O)Nc3ccc(N4CCN(C)CC4)cc3C)coc2c1 was tested, and the Potency was active: 6.31 µM.
For CC(C)Nc1oc(-c2cccc3ccccc23)nc1C#N, the Potency was active: 20 µM.
With CCCCc1cc(=O)oc2cc(C)c(CN3CCCC3)c(O)c12 the Potency was “inactive”.
For COc1ccc2cc(C(=O)NCc3ccco3)c(=O)oc2c1, the Potency was inconclusive [inhibitor, partial curve].
With Cc1sc2nc3ccc(N4CCCC4)nn3c(=O)c2c1C the Potency was inconclusive [inhibitor, partial curve].
For CCOc1ccc(OCc2cccc(C(=O)N3CCCC3)c2)cc1, the Potency was active: 12.6 µM.
In the case of CCCOc1ccc(-c2nnc(-c3ccco3)o2)cc1, the Potency is reported as active: 10 µM.
COc1cc2c(C#N)c(N3CCN(c4ccccc4OC)CC3)nc(N)c2c(N)n1 was tested, and the Potency was “inactive”.
With COc1ccc(-c2cc(C(=O)O)c(C)o2)cc1OC the Potency was inconclusive [inhibitor, single point].
With Cc1nnc(NC(=O)c2ccc3ccccc3c2)o1 the Potency was inconclusive [inhibitor, single point].
With Fc1ccc(CSc2nc3ncccc3[nH]2)cc1 the Potency was inconclusive [inhibitor, single point].
O=C(Nc1ccc2c(c1)OCO2)Oc1ccccc1 was tested, and the Potency was inconclusive [inhibitor, single point].
